Test results: PMC6919601, “Identification of Plasmodium dipeptidyl aminopeptidase allosteric inhibitors by high throughput screening” (PLoS ONE, 2019)
“And” between values parts separate entries of the source, which are not always exact repeats. Identical values can stand only once. The campaign covered roughly 110,000 compounds. About 230 (0.21%) showed an effect of 50% or more. The list shows a part of the results.

The compounds below were run against DPAP1 (Plasmodium falciparum, UniProt Q8IIJ9) (assay: primary screen, percent inhibition; read by cleavage of a fluorogenic dipeptide substrate; higher = more effect of the substance).
Set-up: species or system P. falciparum D10 trophozoite lysates; single well
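Also: 30 min substrate incubation versus DMSO and 10 µM JCP410 controls.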

Chain of DPAP1 (Q8IIJ9 whole entry, looked up): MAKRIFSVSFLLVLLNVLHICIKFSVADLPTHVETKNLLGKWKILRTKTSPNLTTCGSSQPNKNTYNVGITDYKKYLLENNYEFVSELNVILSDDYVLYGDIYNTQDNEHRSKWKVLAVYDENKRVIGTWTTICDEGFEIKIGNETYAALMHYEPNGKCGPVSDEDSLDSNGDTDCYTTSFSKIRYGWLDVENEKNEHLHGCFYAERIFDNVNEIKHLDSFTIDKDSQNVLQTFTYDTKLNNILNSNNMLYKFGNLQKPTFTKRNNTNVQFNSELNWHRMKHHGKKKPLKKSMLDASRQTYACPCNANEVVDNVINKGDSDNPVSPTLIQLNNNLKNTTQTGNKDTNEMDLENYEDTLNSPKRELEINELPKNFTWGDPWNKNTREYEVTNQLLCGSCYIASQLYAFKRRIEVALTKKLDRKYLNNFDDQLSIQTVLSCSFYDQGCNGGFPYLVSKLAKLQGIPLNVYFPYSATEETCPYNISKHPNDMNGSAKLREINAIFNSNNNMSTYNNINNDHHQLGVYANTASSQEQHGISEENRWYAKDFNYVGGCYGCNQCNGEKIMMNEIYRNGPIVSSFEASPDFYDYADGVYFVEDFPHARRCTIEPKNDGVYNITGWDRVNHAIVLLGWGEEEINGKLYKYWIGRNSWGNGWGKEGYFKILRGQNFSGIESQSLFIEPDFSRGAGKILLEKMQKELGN

| Compound | % Inhibition @ 10 uM |
| --- | --- |
| COc1cccc(/C=C2\NC(=O)N(Cc3ccccc3)C2=O)c1OC(C)C | -2.19% |
| FC(F)(F)c1ccc(CNc2ccc3c[nH]nc3c2)cc1 | -5.2% |
| CC(C)CC(C(=O)NCC#N)c1ccc2ccccc2c1 (stereo not drawn) | -4.72% |
| CS/C(=N\Cc1ccco1)Nc1cc(-c2ccccc2)[nH]n1 | 1.12% |
| CCOC(=O)N1CCN(c2c(Nc3cc(C)[nH]n3)c(=O)c2=O)CC1 | -3.21% |
| Cn1c2c(c(=O)n(C)c1=O)C(NC(=O)c1ccccc1F)(C(F)(F)F)C(=O)N2 (stereo not drawn) | -9.93% |
| COc1cccc(-n2nnc3c(=O)n(CC(N)=O)cnc32)c1 | -2.16% |
| CC(=O)c1ccc(NC(=O)c2ccc(C(C)C)cc2)cc1 | 20.3% |
| CCN1CCN(c2nc3c(S(=O)(=O)c4cc(C)ccc4C)nnn3c3ccsc23)CC1 | -0.538% |
| OC1=C2C(=Nc3ccccc3NC2c2ccc3c(c2)OCO3)CC(c2ccccc2)C1 (stereo not drawn) | -2.89% |
| COc1cc(NC(=O)c2ccc(N(C)C)cc2)c(OC)cc1NC(C)=O | -5.23% |
| COc1cccc(C2=Nc3c(c(=O)[nH]c(=O)n3CC(C)C)C(C(F)(F)F)(C(F)(F)F)N2)c1 | -1.52% |
| Cc1ccc(S(=O)(=O)c2nnn3c2nc(N2CCN(C)CC2)c2cc(Cl)ccc23)cc1C | -4.85% |
| O=S(=O)(c1ccccc1)c1cnc2ccc(Cl)cc2c1N1CCC2(CC1)OCCO2 | -6.24% |
| CSc1ccc(/C=C2/NC(=O)NC2=O)cc1 | -2.87% |
| Cc1ccc(OCCOC(N)=O)cc1 | -2.51% |
| CCOc1ccc(C(=O)Nc2cc(C)ccn2)cc1 | -2.19% |
| COc1ccccc1/N=c1\scc(-c2ccc(Br)cc2)n1CCCO | -6.67% |
| CCOC(=O)c1ccc(NS(C)(=O)=O)cc1 | 3.25% |
| O=C(CN1C(=O)c2cccc3cccc1c23)Nc1ccc2c(c1)OCO2 | -6.62% |
| O=C1C2CC=C(Cl)CC2C(=O)N1c1ccccc1 (stereo not drawn) | 3.72% |
| NC(=O)Cn1c(=O)n(Cc2ccccc2)c(=O)c2oc3ccccc3c21 | 1.68% |
| OC1CCCN(Cc2c[nH]c3ccccc23)C1 (stereo not drawn) | 5.32% |
| N#Cc1cnc2c(-c3ccccc3)c(COc3ccccc3)nn2c1N | 3.36% |
| Nc1c2c(nc3ccccc13)N(c1cccc(Cl)c1)CC2 | 5.04% |

| Compound | % Inhibition @ 10 uM |
| --- | --- |
| CCC(C(=O)NCCCN1CC(C)CC(C)C1)n1c2ccccc2c2cnnc(O)c21 (stereo not drawn) | -0.281% |
| CCOc1ccccc1-n1c(C)cc(/C=C2\C(=N)N3N=C(N4CCOCC4)SC3=NC2=O)c1C | 4.88% |
| CCCNCc1ccc(C(=O)O)s1 | -4.38% |
| COc1cc(/C=C2/C(=N)N3OC(C)=CC3=NC2=O)cc(Cl)c1OCc1ccc2c(c1)OCO2 | -3.23% |
| COc1ccc(NC(=O)C2CCN(S(=O)(=O)c3ccccc3)CC2)c(OC)c1 | 6.63% |
| CCN(CC)CCCNC(=O)C1CCN(C(=O)c2ccc(-n3ccc4ccccc43)s2)CC1 | 1.44% |
| Cc1ccc(NC(=O)c2ccccc2F)c(NC(=O)c2ccccc2F)c1 | 0.727% |
| CCC(C)NC(=O)CN(CCc1ccccc1)S(=O)(=O)c1ccc(Br)cc1 (stereo not drawn) | 20.7% |
| CCOC(=O)C1=C(N)OC(C)=C(C(C)=O)C12C(=O)Nc1ccccc12 (stereo not drawn) | -5.28% |
| Cc1nc2c(c3c1[nH]c1ccccc13)C(=O)CC(C)(C)C2 | 3.83% |
| COc1ccc(S(=O)(=O)NCC2CCC(C(=O)NCc3ccc(Cl)cc3)CC2)cc1 (stereo not drawn) | -10.3% |
| O=C1C2(Cc3ccccc3)CN3CN(C2)CC1(Cc1ccccc1)C3 | 0.774% |
| O=C(/C=C\c1ccccc1)Nc1c2c(nn1-c1ccc(Cl)cc1)CS(=O)(=O)C2 | -0.349% |
| Cc1ccc(S(=O)(=O)NCCC(=O)NCc2ccccc2Cl)cc1 | -9.73% |
| CCOC(=O)c1sc(NC(=O)COc2ccc(C(C)(C)C)cc2)c(C(=O)OCC)c1C | -0.769% |
| CCN(Cc1ccccc1)C(=O)CSc1nc(C)c(Cl)c(C)c1C#N | -2.5% |
| CCCCCn1c(CNC(=O)COC)nc2ccccc21 | -1.73% |
| CCOC(=O)c1c(C)oc2ncnc(N3CCN(C(=O)OCC)CC3)c12 | 1.08% |
| COc1cc(C2C(C#N)=C(N)OC3=C2C(=O)CC(C)(C)C3)ccc1OCc1ccc(C)cc1 (stereo not drawn) | 5.49% |
| CCO/C(O)=C1/C(C)=NC2=C(C(=O)CC(c3ccccc3)C2)C1c1cccnc1 (stereo not drawn) | 1.67% |
| COc1ccc(Nc2oc(COc3cccc(C)c3)nc2C#N)cc1 | 2.01% |
| Cc1cccc(N2CC(=O)NC2=O)c1 | 2.78% |
| CCn1cc(C2=NCC(C)O2)c2ccccc21 (stereo not drawn) | 2.9% |
| CCOC(=O)c1c(C)oc2cc(Cl)c(O)c(CN(C)C)c12 | -1.26% |
| CCc1ccccc1NC(=O)c1cccc(C)c1 | -0.197% |

| Compound | % Inhibition @ 10 uM |
| --- | --- |
| COc1ccccc1OCc1ccc(C(=O)N2N=C(C)CC2(O)C(F)(F)F)cc1 (stereo not drawn) | 0.389% |
| COc1cc(C=O)cc(Br)c1OCc1ccccc1Br | 0.503% |
| CCCCOc1ccc(/C=C2\SC(=O)NC2=O)cc1OCC | 1.64% |
| Cc1cc(C)c2ccc(C3C(=O)c4ccccc4C3=O)nc2c1 | -1.11% |
| CC(=O)Nc1ccc(CN2CCN(c3cccc(Cl)c3)CC2)cc1 | 1.4% |
| COc1ccc(C2=N/C(=C\c3ccc4c(c3)OCO4)C(=O)O2)c(Cl)c1 | 5.32% |
| COc1ccc(C2C(C(=O)c3ccc(C)cc3)=C(O)C(=O)N2CCN2CCOCC2)c(OC)c1 (stereo not drawn) | -1.61% |
| c1ccc(CC2CCN(c3ncnc4c3cnn4-c3ccccc3)CC2)cc1 | 7.92% |
| Cc1nc(-c2ccc(Br)cc2)nc(O)c1C | 0.937% |
| O=C(NC(Nc1ccc(Cl)cc1)C(=O)c1ccccc1)c1ccccc1 (stereo not drawn) | 3.31% |
| CC1=C(c2ccc(C)c(C)c2)S(=O)(=O)N=C1N1CCC(C(=O)NCCCN2CCCC2=O)CC1 | 0.0575% |
| COc1ccccc1C1=N/C(=C\c2ccc(C(C)C)cc2)C(=O)O1 | -0.597% |
| COc1ccc(Cl)cc1C(=O)Nc1ccc(CC#N)cc1 | 3.21% |
| COc1cc(/C=C2/NC(=O)NC2=O)ccc1OCC(=O)O | 1.31% |
| CC(C)CC(=O)Nc1nc(-c2ccc3ccccc3c2)cs1 | -4.33% |
| Cc1cc(OCC(=O)Nc2ccc(S(=O)(=O)N3CCCC3)cc2)ccc1Cl | 5.15% |
| COc1ccc(C(=O)Nc2sc3c(c2C(N)=O)CCC(C)C3)cc1 (stereo not drawn) | 0.795% |
| Cc1ccc(CC(=O)Nc2nnc(C(F)(F)F)s2)cc1 | -2.98% |
| Clc1cccc(N2CCN(Cc3ccc(Cl)c(Cl)c3)CC2)c1 | 1.55% |
| O=C(CCCc1nc(-c2ccccc2)no1)NCc1ccccc1 | -2.92% |
| CC(=O)c1ccc(NC(=O)Cn2c(-c3nonc3N)nc3ccccc32)cc1 | 0.121% |
| CC1CN(C/C(Cl)=C/c2ccccc2)CC(C)O1 (stereo not drawn) | 3.48% |
| CCOC(=O)c1conc1-c1ccc(Cl)cc1Cl | 0.177% |
| CC1=CC(=O)N(CCNC(=O)C2CCCNC2=O)C1=O (stereo not drawn) | 5.23% |
| CC(NC(=O)CSc1nc(N)cc(O)n1)c1ccccc1 (stereo not drawn) | -3.21% |

| Compound | % Inhibition @ 10 uM |
| --- | --- |
| Cc1ccc(S(=O)(=O)N(CC(=O)N2CCN(c3ccccc3)CC2)c2ccccc2F)cc1 | -6.36% |
| Cc1nc(C)c(C(=O)Nc2nnc(C(C)C)s2)s1 | -4.54% |
| CC(C)C[C@H](NC(=O)OCCCC1CCCCC1)C(=O)NCC#N | -4.72% |
| COc1ccc2nc(N3CCC(C(=O)NCCC(C)C)CC3)sc2c1 | 1.07% |
| Oc1c(Cl)cc(Cl)cc1C1NCCc2c1[nH]c1ccccc21 (stereo not drawn) | 19.2% |
| CC(C)n1cc(NC(=O)c2ccncc2)cn1 | 4.58% |
| CCC(O)=C1C(=O)N(C)C(=O)N(C)C1=O | 2.56% |
| Cc1csc(NC(=O)c2cnn(-c3ccc(C)c(C)c3)c2C2CCN(C(=O)OC(C)(C)C)CC2)n1 | 0.711% |
| Cc1c(C)n2c3c(cc(NC(=O)c4ccccc4)cc13)CCC2 | 3.15% |
| Cc1c(C)c2cc(Cl)c3c(c2oc1=O)CN(Cc1ccccc1)CO3 | -2.57% |
| COc1ccc(Br)cc1C(=O)Nc1ccc2c(c1)C(=O)N(C)C2=O | 2.08% |
| COc1cccc(C(=O)Nc2cccc(C)n2)c1 | -1.52% |
| COc1cccc(NC(=O)COc2ccc3oc4c(c3c2)CCCC4)c1 | 2.01% |
| CC(=N)Nc1sc2c(c1C#N)CCCC2 | -6.99% |
| CCS(=O)(=O)C1=NSC2=NC(=O)/C(=C\c3cc(OC)c(OC)c(OC)c3)C(=N)N21 | 1.85% |
| CCCCCC(=O)N(CN1C(=O)c2ccccc2C1=O)c1ccccc1OC | 4.28% |
| CCOc1ccccc1-n1c(C)cc(/C=C2\C(=N)N3N=C(S(C)(=O)=O)SC3=NC2=O)c1C | -1.54% |
| CC(C)C[C@H](NC(=O)N1CCN(C(=O)c2ccco2)CC1)C(=O)NCC#N | 1.35% |
| Cc1ccc(C)c(N2CCN(C3CCC(c4ccccc4)CC3)CC2)c1 (stereo not drawn) | 1.26% |
| COc1ccc(OC)c(CN2CCN(C(=O)c3ccccc3F)CC2)c1 | -7.09% |
| O=C(Nc1ccc(-c2nc3cc(Cl)ccc3o2)c(O)c1)c1ccc2c(c1)OCCO2 | -2.87% and 2.03% |
| Cc1cccc2sc(NC(=O)Cc3nn(C)c(=O)c4ccccc34)nc12 | -0.458% |
| O=C1C2C3C=CC(C2C(=O)N1c1cccc(O)c1)C1C2C(=O)N(c4cccc(O)c4)C(=O)C2C31 (stereo not drawn) | -4.61% |
| N#CC1(NC(=O)[C@H](Cc2c(F)cccc2F)NC(=O)c2ccc(-c3ccccc3Cl)cc2)CCN(CC(F)(F)F)CC1 | -3.48% |
